Measured values: the RNAGym collection of RNA variant scans (doi:10.1073/pnas.2313332121)
Variants at the background level are over-represented here.

B1: TPR 5TU (parent)
chain: GGAUCUUCUCGAUCUAACAAAAAAGACAAAUCUGCCACAAAGCUUGAGAGCAUCUUCGGAUGCAGAGGCGGCAGCCUUCGGUGGCGCGAUAGCGCCAACGUUCUCAACUAUGACACGCAAAACGCGUGCUCCGUUGAAUGGAGUUUAUCAUG

Variants of: B1
Assay: polymerase ribozyme fitness, log enrichment relative to wild type (log ratio); higher = more active; in vitro selection for triplet polymerase activity
In short: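 Streptavidin-bead capture of gel-excised extended constructs, followed by RT-PCR, closed a single triplicate in vitro selection round. That round began by annealing PCR-built, transcribed mutant libraries of each subunit of a heterodimeric triplet polymerase ribozyme with a biotinylated primer, the partner subunit and triplets, then incubating them frozen at −7 °C. After Illumina sequencing of inputs and outputs, genotypes needed ≥10 input reads and ≥1 read per output. Fitness is the base-2 logarithm of genotype enrichment over wild-type enrichment, using inverse-variance-weighted replicate averages.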

Row | Variant | polymerase ribozyme fitness (log ratio)
1 | A89G U134C | -0.372
2 | C93A G100A C132G U139C | ≤ -4.2
3 | G92U C95U C149G | ≤ -4.2
4 | A91U A115U | ≤ -4.2
5 | A91C A142C U146G | ≤ -4.2
6 | A91G C95U C125U | -4.09
7 | G88U A91U C131U | ≤ -4.2
8 | C93A G124C | -2.88
9 | A91U C96A U144C U151A | ≤ -4.2
10 | C93A A138C U151C | ≤ -4.2
11 | U90G U104A U134A | ≤ -4.2
12 | C87G G88U U148C | ≤ -4.2
13 | A91C U104A C114U C132U U139A | ≤ -4.2
14 | G92A G124A | -2.65
15 | U90A U130A | ≤ -4.2
16 | G88C U135A | ≤ -4.2
17 | C87G A138G | ≤ -4.2
18 | C87G A138U | ≤ -4.2
19 | C87G C108U A147G | ≤ -4.2
20 | C93U C95G C108G | ≤ -4.2
21 | C93A C96G C99U C116G C118U A119U U148C | ≤ -4.2

Row | Variant | polymerase ribozyme fitness (log ratio)
22 | A91C C93U U104G | ≤ -4.2
23 | G92A U102G U104C C118A | ≤ -4.2
24 | C93G A98U C114A | -3.85
25 | G88A C93G C103G | ≤ -4.2
26 | C93A A106G U134C | ≤ -4.2
27 | C87G G136U G141C | ≤ -4.2
28 | A91C U102C U130G G133U U135C | ≤ -4.2
29 | C87U C118U | -0.642
30 | A91C U144C | -4.19
31 | G92U U101G C103G G124A C129A | ≤ -4.2
32 | C87U U109C G133U | ≤ -4.2
33 | A91U G143U U144C C149U | ≤ -4.2
34 | A89U G94U | -1.2
35 | G88A C96A C103U | ≤ -4.2
36 | C93U A115C G117C U135G G136C | ≤ -4.2
37 | C93A A115C | -3.22
38 | G92A G133U | ≤ -4.2
39 | G88U A97U U102G G117U U139G | ≤ -4.2
40 | C87U A91U | ≤ -4.2
41 | C87G C103U | ≤ -4.2
42 | A91U A120U | ≤ -4.2

Row | Variant | polymerase ribozyme fitness (log ratio)
43 | U90C A138G G143U | ≤ -4.2
44 | G92A C95A A98G G136C U139C | ≤ -4.2
45 | G92A C114U C129G U151G | ≤ -4.2
46 | C87A U145G | ≤ -4.2
47 | C87U A89U | -1.2
48 | C93G C95G G143C | ≤ -4.2
49 | A89G C95G A120U G133U | ≤ -4.2
50 | G92A U135G G141U U148C | ≤ -4.2
51 | C93A G133U | ≤ -4.2
52 | C93U C99A G128C | ≤ -4.2
53 | A91G G140A | -4.12
54 | G92A C93A A98G U146G | ≤ -4.2
55 | G88U A120G | ≤ -4.2
56 | C87G A89U C96U | ≤ -4.2
57 | A89U A97U U101A A107C A121C G140U U148G | ≤ -4.2
58 | A91U G124C | ≤ -4.2
59 | G92U C116A A121G G126A C149G | ≤ -4.2
60 | G92C G100A U130C A138U G141A | ≤ -4.2
61 | G88C A121U | ≤ -4.2
62 | C87U C99U U101G A137C U145G | ≤ -4.2
63 | A91U A147U | -3.99

Row | Variant | polymerase ribozyme fitness (log ratio)
64 | G92A C96G C108U A120C C125A U151G | ≤ -4.2
65 | U90C C96U | -3.69
66 | A89C A107C C114U | ≤ -4.2
67 | G92A A150C G152U | ≤ -4.2
68 | A89G C93A | -3.94
69 | G88U C114A | ≤ -4.2
70 | U90G G94U | ≤ -4.2
71 | A89C C103A U130C C132A | ≤ -4.2
72 | G88C G100C U139A | ≤ -4.2
73 | C93G G94A A97C | ≤ -4.2
74 | A89U C99U G128U G141U | ≤ -4.2
75 | G88C C123G U146A | ≤ -4.2
76 | C87A U151A | ≤ -4.2
77 | G88C U101A | ≤ -4.2
78 | C87U C129G | -2.63
79 | C87G C114G A137G | ≤ -4.2
80 | G92A G152U | -3.58
81 | G88A C93A C123U G126U G133U G140U | ≤ -4.2
82 | A91U C103G | ≤ -4.2
83 | C93G U144A | -2.68
84 | A91U C125U G126U U134A | ≤ -4.2
